PubChem BioAssay AID652106 (National Center for Advancing Translational Sciences (NCATS), 2013)
The whole screen tested about 370,000 compounds, of which about 500 (0.14%) were called active. The inconclusive results got no clear call from the source; some entries with a clear call stand among them for comparison. The call rests on the fitted dose curve; in most records, active means well fitted activation curve with a large enough effect; inconclusive means small, poorly fitted or top-dose-only effect; inactive means no such curve, though single readings can be large or run the other way. No potency is given beside an inconclusive call; the fits are too rough.

Assay: qHTS of alpha-syn Inhibitors; further: nearly all actives have a fitted effect of over 65% in size; on growth rescue (activation): % of control where 0% means no effect
Details: Yeast expressing alpha-synuclein, BacTiter-Glo, 24 h; Potency: growth rescue unless noted; growth rescue (activation): at 46.1 µM (top of the series) unless noted
Procedure, shortened: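 Readout is rescue of growth in alpha-synuclein-expressing yeast, so inhibitors of toxicity appear as activators. Growth after 24 hr at 30 deg C in galactose medium is quantified by luminescence.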
Potency means the concentration at half of the fitted maximal effect; tags describe the fitted curve by direction and shape.

Row | Compound | Potency | growth rescue (activation)
1 | O=C(Nc1ccccc1C(=O)NCCCN1CCOCC1)c1ccc(F)cc1 | inactive | 
2 | Cc1cc(C)cc(-n2ccnc2SCC(=O)Nc2nc3ccccc3s2)c1 | inconclusive [activator, single point] | 
3 | CC1Nc2ncnc(N3CCN(c4ccccc4)CC3)c2N(Cc2ccc(Cl)cc2)C1=O (stereo not given) | inconclusive [activator, single point] | 
4 | CCCC(=O)NC(c1ccco1)c1cc(Cl)c2cccnc2c1O (stereo not given) | inconclusive [activator, single point] | 
5 | CC(=O)NC(c1ccccc1)c1nc(-c2cccs2)cs1 (stereo not given) | inactive | 
6 | Cc1c(C(=O)N2CC(C)OC(C)C2)oc2ccccc12 (stereo not given) | inconclusive [activator, single point] | 
7 | COc1ccc(-c2cc(=O)n(-c3nc4ccccc4[nH]3)[nH]2)cc1 | inconclusive [activator, single point] | 
8 | COc1ccc(S(=O)(=O)N2CCC(C(N)=O)CC2)cc1C(=O)N1CCCCCC1 | inconclusive [activator, single point] | 
9 | Cc1ccc(N(Cc2cc3ccccc3[nH]c2=O)C(=O)c2ccco2)c(C)c1 | inconclusive [activator, single point] | 
10 | Cc1ccc2c(CN3CCCCC3CCO)cc(=O)oc2c1 (stereo not given) | inconclusive [activator, single point] | 
11 | N#C/C(=C\c1ccc(F)c(Br)c1)C(=O)NC1CC1 | inconclusive [activator, partial curve] | 
12 | CC1(c2nnc(-c3cccc(Cl)c3)o2)CC(c2ccccc2F)=NO1 (stereo not given) | inconclusive [activator, partial curve] | 
13 | Cc1nc(Cl)cc(CS(=O)(=O)c2ccc(Cl)cc2)n1 | inactive | 
14 | COc1ccc(C(=O)/C=C/Nc2cc(C)on2)cc1 | inconclusive [activator, single point] | 
15 | CN(C)S(=O)(=O)c1ccc(Cl)c(NC(=O)COC(=O)/C=C/c2cnc3ccccc3n2)c1 | inconclusive [activator, single point] | 
16 | CC1CCN(S(=O)(=O)c2ccc3c(ccc(=O)n3CC(=O)Nc3ccc(C(C)C)cc3)c2)CC1 | inactive | 
17 | O=[N+]([O-])c1ccccc1/C=N/n1c(C2CCCCC2)n[nH]c1=S | inactive | 
18 | Cn1cc(CCC(=O)NCc2ccc(Cl)cc2)c2ccccc21 | inconclusive [activator, single point] | 
19 | CCN1CCOC(CC(=O)Nc2cccc([N+](=O)[O-])c2)C1=O (stereo not given) |  | inconclusive: -72.1% [activator]
20 | C=Cc1ccc(Cn2nc(-c3ccccc3)ccc2=O)cc1 | inconclusive [activator, single point] | 
21 | Cc1ccc(N2C(=O)c3ccccc3C2Nc2ccccc2)nc1 (stereo not given) | inactive | 
22 | Cc1cccc(C)c1OC(=O)CSc1nnc(-c2ccccc2)o1 | inconclusive [activator, single point] | 
23 | CCCCCCCCN1C(=O)[C@H](CC(=O)N2CCOCC2)C[C@@]2(C(=O)OC)CC(C)(C)CC=C12 | inconclusive [activator, single point] | 
24 | CS(=O)(=O)N(CC(=O)Nc1ccc(Br)cc1)c1ccccc1Br | inconclusive [activator, single point] | 

Row | Compound | Potency | growth rescue (activation)
25 | O=C(CSc1ncc(C(F)(F)F)cc1Cl)N1CCN(S(=O)(=O)c2ccc(Cl)cc2)CC1 | inconclusive [activator, full curve] | 
26 | Cc1ccc2c(c1)C=CC(C#N)N2C(=O)c1ccccc1 (stereo not given) | inactive | 
27 | Cc1ccnc2nc(C(=O)OCCOc3cccc(Br)c3)nn12 | inactive | 
28 | Cc1ccc(NC(=O)CSc2nc3ccccc3nc2Cc2ccccc2)c(C)c1 | inactive | 
29 | Cc1cc(Cl)ccc1OCC(=O)N1CCCN(C(=O)COc2ccc(Cl)cc2C)CC1 | inconclusive [activator, single point] | 
30 | O=C(N/N=C/c1ccccn1)c1ccc(Br)cc1 | inconclusive [activator, single point] | 
31 | CCN(CC)c1ccc(S(=O)(=O)N2CCOCC2)cc1NC(=O)CSc1cccc[n+]1[O-] | active: 17.8 µM | 
32 | C[C@@H]1CN([C@@H](C)CO)C(=O)CCCn2nncc2CO[C@H]1CN(C)C(=O)Nc1ccc(C(F)(F)F)cc1 | inconclusive [activator, single point] | 
33 | O=C1ON=C(c2ccccc2)/C1=C/c1ccccc1 | inconclusive [activator, single point] | 
34 | CCc1nc2ccc(C(=O)N(C)CC(=O)Nc3ccc(Cl)c(C(F)(F)F)c3)cc2nc1CC | inconclusive [activator, single point] | 
35 | O=C(CN1C(=O)NC2(CCc3ccccc3C2)C1=O)NCC(F)(F)F (stereo not given) | inconclusive [activator, single point] | 
36 | COc1ccccc1N1C(=O)c2ccccc2NC1C(OC)OC (stereo not given) | inactive | 
37 | CCn1cnc2cc(NCc3cccc(OC)c3O)ccc21 | inactive | 
38 | CCn1c(SCC(=O)N2c3ccccc3Sc3ccccc32)nnc1-c1ccco1 | inconclusive [activator, single point] | 
39 | C[C@]12c3[nH]c4ccccc4c3CCN1C(=O)C(CC(=O)NCC13CC4CC(CC(C4)C1)C3)C[C@@H]2C(=O)N1CCCCC1 (stereo not given in full) | inconclusive [activator, single point] | 
40 | Cc1ccc(Cc2c(-c3cccc(Br)c3)nc3cc(C)c(Br)c(C)n23)cc1 | inconclusive [activator, single point] | 
41 | CC(NC(=O)c1ccc2c(c1)OCO2)C1CCCO1 (stereo not given) | inconclusive [activator, single point] | 
42 | NC(=O)C1CCN(C(=O)c2ccc(NC3=NC4CS(=O)(=O)CC4S3)cc2)CC1 (stereo not given) | inconclusive [activator, single point] | 
43 | O=C(c1ccncc1)N1N=C2CCCCCC2C1(O)C(F)(F)F (stereo not given) | inconclusive [activator, single point] | 
44 | CCCS(=O)(=O)NC(=O)C1(C)CCN(C(=O)Cc2ccc3ccccc3c2)C1 (stereo not given) | inactive | 
45 | O=C1Nc2ccccc2/C1=C/C(=O)c1cccs1 | inactive | 
46 | Cc1nn2c(-c3ccncc3)nnc2c2ccccc12 | inconclusive [activator, single point] | 
47 | Cc1cc(C)nc(N(C#N)CCOc2ccccc2)n1 | inconclusive [activator, single point] | 
48 | OC(c1ccc(F)c(F)c1)c1nc(-c2ccc3c(c2)OCO3)cs1 (stereo not given) | inconclusive [activator, partial curve] | 

Row | Compound | Potency | growth rescue (activation)
49 | O=C(O)c1cccc(-c2nnn(Cc3ccccc3)n2)c1 | inconclusive [activator, single point] | 
50 | Cc1ccnc(SCc2cc(=O)c(OC(=O)c3ccc(Br)o3)co2)n1 | inconclusive [activator, partial curve] | 
51 | COc1ccc(C(C)NC(=O)C2CCN(CCCc3ccccc3)CC2)cc1OC (stereo not given) | inconclusive [activator, single point] | 
52 | Cc1c(C(=O)N2c3ccccc3CC2C)oc2ccccc12 (stereo not given) | inactive | 
53 | O=[N+]([O-])c1ccc(Nc2nc(NCCN3CCOCC3)nc(Nc3ccc(Cl)cc3)n2)cc1 |  | inconclusive: -51.2% [activator]
54 | CCN(CC)S(=O)(=O)c1ccc(C)c(NC(=O)COc2ccc3c(C)cc(=O)oc3c2)c1 | inactive | 
55 | CC1(C)CC(=O)C(C=Nc2ccncc2)=C(O)C1 | inconclusive [activator, single point] | 
56 | Cc1cccc(C)c1-n1nnnc1C1c2ccccc2C(=O)N1CCCn1ccnc1 (stereo not given) | inconclusive [activator, single point] | 
57 | COc1cccc(C(NC(C)=O)c2nc(-c3ccc4ccccc4c3)cs2)c1 (stereo not given) | inconclusive [activator, single point] | 
58 | Clc1ccccc1OCc1nnc(-c2ccccc2Br)o1 | inactive | 
59 | CCn1c(COc2cccc3ccccc23)nnc1SCC(N)=O | inactive | 
60 | NC(=O)c1c(NC(=O)CSc2nc(N)cc(=O)[nH]2)sc2c1CCCC2 | inconclusive [activator, single point] | 
61 | CC(C)CC1C(=O)N(Cc2cn(CCC3OCCO3)nn2)CCS(=O)(=O)N1Cc1ccc(-c2ccc(F)cc2)cc1 (stereo not given) | inconclusive [activator, single point] | 
62 | CC(C)(C)c1ccc(OCCC(=O)OCC(=O)NC2CC2)cc1 | inconclusive [activator, partial curve] | 
63 | O=c1[nH]c(CN2CCN(c3ccc(O)cc3)CC2)nc2scc(-c3ccc(Cl)cc3)c12 | inconclusive [activator, single point] | 
64 | CC(C)(C)c1ccc(S(=O)(=O)N2CCN(CC(O)COCC3CCCO3)CC2)cc1 (stereo not given) | inconclusive [activator, single point] | 
65 | CNC(=O)c1c(NC(=O)/C=C/c2ccccc2)sc2c1CCC2 | inactive | 
66 | CCS(=O)(=O)NCCc1csc(-c2cccnc2)n1 | inactive | 
67 | O=C(Cc1ccc(OCCc2ccccc2)cc1)NO | inconclusive [activator, single point] | 
68 | Cc1ccc(-c2csc(NC(=O)c3ccco3)n2)cc1C | inactive | 
69 | Cc1ccc2c(Cl)cc(Cl)c(OCC(=O)Nc3cccc(S(=O)(=O)N(C)C)c3)c2n1 | inconclusive [activator, single point] | 
70 | CCCCc1ccc(NC(=S)NCc2cccc(OC)c2)cc1 | inactive | 
